Results taken from US20220267409A1 (KAHR MEDICAL, published 2022).
Blank lines part the entries; values can stand above or below the binder they belong to.

Assays:
[1] = target: T1, human recombinant PDL1 (GenScript) (human, UniProt Q9NZQ7 part only, limits assumed); experiment: sandwich ELISA: PDL1-coated plate, dilutions of supernatant, detection with biotinylated 4-1BB and streptavidin-HRP
T1 construct: Coated on ELISA plates; also called PDL1 protein; PDL1 coated plate
Description: (§1) Supernatants containing the heterodimers or control supernatant (from non-transfected Expi293F cells) were incubated in PDL1 or CD47 pre-coated 96 wells plate or a mix of both proteins at equal-molar quantity. Following incubation, detection was effected with biotinylated 4-1BBL. […] Detection was effected with a TMB substrate according to standard ELISA protocol using a Plate reader (Thermo Scientific, Multiscan FC) at 450 nm, with reference at 540 nm.
(§2) Methods—Ninety-six-wells plates were pre-coated by incubating overnight at 4° C. with a recombinant CD47 protein, PDL1 protein, HLA-G protein or a mix of two proteins at equal-molar quantity. Following blocking and washing, serially diluted supernatant containing the produced PD1-4-3xsc1BBL, SIRPα-PD1-3xsc4-1BBL, 2xLILRB2-3xsc4-1BBL or LILRB2-SIRPα-3xsc4-1BBL heterodimers were added to the relevant pre-coated wells. Following an additional washing step, biotinylated 4-1BB or rabbit anti-anti-SIRPα antibody was added and allowed to bind to the 4-1BBL arm or SIRPα arm, respectively, of the heterodimer. The plates were washed again and streptavidin-HRP or goat anti-rabbit IgG antibody-HRP was added. Detection was effected with a TMB substrate according to standard ELISA protocol using a plate reader (Thermo Scientific, Multiscan FC).

[2] = target: T2, biotin-conjugated human recombinant 4-1BB protein (GenScript) (human, UniProt Q07011 24-186, biotin-conjugated); experiment: as above
T2 construct: Detection reagent of the sandwich ELISA; also called biotinylated 4-1BB; 41BB-biotin
Description: as §1, §2

[3] = target: T3, human PDL1 expressed on DLD1-PDL1 cells (human, UniProt Q9NZQ7); experiment: flow cytometry on DLD1-PDL1 cells against DLD1 WT cells, dilutions of supernatant, detection with anti-4-1BBL antibody
T3 construct: whole, on cells; also called CD274; DLD1 PDL1 overexpressing cell line
Description: (§3) The binding of the heterodimer to the ligand expressing cell lines was determined by immuno-staining of its 4-1BBL domain using an anti-4-1BBL antibody following incubation of the cells with the indicated heterodimer, followed by flow cytometric analysis. GMFI values are presented and were used to create a binding curve graph with a GraphPad Prism software. […] The binding of the heterodimer to the cell lines was determined by immuno-staining of its PD1 domain using an anti-PD1 antibody following incubation of the cells with the indicated heterodimer, followed by flow cytometric analysis. GMFI values are presented and were used to create a binding curve graph with a GraphPad Prism software.
Methods—Cells were incubated with serial dilutions of the produced heterodimers-containing supernatants for 20 minutes at 4° C., followed by immuno-staining with conjugated antibody against 4-1BBL and analyzed by flow cytometry. In some cases, cells underwent pre-incubation with anti CD47 blocker antibody prior to the incubation with the supernatants.

[4] = target: T4, human 4-1BB expressed on HT1080-4-1BB cells (human, UniProt Q07011 24-255); experiment: flow cytometry on HT1080-4-1BB cells against HT1080 WT cells, dilutions of supernatant, detection with anti-PD1 antibody
T4 construct: whole, on cells; also called HT1080 4-1BB overexpressing cells
Description: as §3
(§4) Methods—Cells were incubated with serial dilutions of the produced heterodimers-containing supernatants for 20-30 minutes at 4° C., followed by immuno-staining with an antibody against PD1 or LILRB2 and analyzed by flow cytometry. In some cases, cells underwent pre-incubation with anti CD47 blocker antibody or anti-4-1BB blocker antibody prior to the incubation with the supernatants.

[5] = target: T4, human 4-1BB expressed on HT1080-4-1BB …; experiment: flow cytometry on HT1080-4-1BB cells, dilutions of supernatant, detection with anti-LILRB2 antibody
Description: The binding of the heterodimer to the receptor expressing cell line was determined following incubation of the cells with the heterodimer by immuno-staining of its LILRB2 domain using an anti-LILRB2 antibody, followed by flow cytometric analysis.
as §4

[6] = target: T2, biotin-conjugated human recombinant …; experiment: sandwich ELISA: HLA-G-coated plate, dilutions of supernatant, detection with 41BB-biotin and streptavidin-HRP
Description: Supernatants containing the heterodimer TSP214 or control supernatant (FIG. 28A) or purified TSP215 heterodimer (FIGS. 28B-C) were incubated in HLA-G, CD47 or BSA pre-coated 96-wells plates. Binding was detected by incubation with 41BB-biotin, followed by streptavidin-HRP and TMB substrate according to standard ELISA protocol using a plate reader at 450 nm, with reference at 620 nm.
as §2

- binding result [1]: binds
- binding result [2]: binds
- binding result [3]: binds
- binding result [4]: binds
B1: PD1-Fc-3xSc4-1BBL heterodimer DSP305 (SEQ ID NOs: 79 and 81) (Fc fusion)
chain 1: DSPDRPWNPPTFSPALLVVTEGDNATFTCSFSNTSESFVLNWYRMSPSNQTDKLAAFPEDRSQPGQDSRFRVTQLPNGRDFHMSVVRARRNDSGTYLCGAISLAPKAQIKESLRAELRVTERRAEVPTAHPSPSPRPAGQGGGGSGGGGSESKYGPPCPPCPAPEFEGGPSVFLFPPKPKDTLMISRTPEVTCVVVDVSQEDPEVQFNWYVDGVEVHNAKTKPREEQFNSTYRVVSVLTVLHQDWLNGKEYKCKVSNKGLPSSIEKTISKAKGQPREPQVYTLPPSQCEMTKNQVSLSCAVKGFYPSDIAVEWESNGQPENNYKTTPPVLDSDGSFFLVSRLTVDKSRWQEGNVFSCSVMHEALHNHYTQKSLSLSLGKGGGGSGGGGSAASPRLREGPELSPDDPAGLLDLRQGMFAQLVAQNVLLIDGPLSWYSDPGLAGVSLTGGLSYKEDTKELVVAKAGVYYVFFQLELRRVVAGEGSGSVSLALHLQPLRSAAGAAALALTVDLPPASSEARNSAFGFQGRLLHLSAGQRLGVHLHTEARARHAWQLTQGATVLGLFRVTPEIPAGLPSPRSEGGGGSGGGGSGGGGSAASPRLREGPELSPDDPAGLLDLRQGMFAQLVAQNVLLIDGPLSWYSDPGLAGVSLTGGLSYKEDTKELVVAKAGVYYVFFQLELRRVVAGEGSGSVSLALHLQPLRSAAGAAALALTVDLPPASSEARNSAFGFQGRLLHLSAGQRLGVHLHTEARARHAWQLTQGATVLGLFRVTPEIPAGLPSPRSEGGGGSGGGGSGGGGSAASPRLREGPELSPDDPAGLLDLRQGMFAQLVAQNVLLIDGPLSWYSDPGLAGVSLTGGLSYKEDTKELVVAKAGVYYVFFQLELRRVVAGEGSGSVSLALHLQPLRSAAGAAALALTVDLPPASSEARNSAFGFQGRLLHLSAGQRLGVHLHTEARARHAWQLTQGATVLGLFRVTPEIPAGLPSPRSE
chain 2: DSPDRPWNPPTFSPALLVVTEGDNATFTCSFSNTSESFVLNWYRMSPSNQTDKLAAFPEDRSQPGQDSRFRVTQLPNGRDFHMSVVRARRNDSGTYLCGAISLAPKAQIKESLRAELRVTERRAEVPTAHPSPSPRPAGQGGGGSGGGGS[human IgG4 Fc with S228P L235E Y349C T366W (EU numbers) omitted here]
notes: Knob-into-hole hIgG4 Fc heterodimer made in Expi293F cells; tested as culture supernatant; also called PD1-sc3x4-1BBL heterodimer; PD1-4-3xsc1BBL

- binding result [5]: binds
- binding result [6]: binds
B2: heterodimer DSP214 (SEQ ID NOs: 138 and 142) (Fc fusion)
chain 1: QTGTIPKPTLWAEPDSVITQGSPVTLSCQGSLEAQEYRLYREKKSASWITRIRPELVKNGQFHIPSITWEHTGRYGCQYYSRARWSELSDPLVLVMTGAYPKPTLSAQPSPVVTSGGRVTLQCESQVAFGGFILCKEGEEEHPQCLNSQPHARGSSRAIFSVGPVSPNRRWSHRCYGYDLNSPYVWSSPSDLLELLVPGVSKKPSLSVQPGPVVAPGESLTLQCVSDVGYDRFVLYKEGERDLRQLPGRQPQAGLSQANFTLGPVSRSYGGQYRCYGAHNLSSECSAPSDPLDILITGQIRGTPFISVQPGPTVASGENVTLLCQSWRQFHTFLLTKAGAADAPLRLRSIHEYPKYQAEFPMSPVTSAHAGTYRCYGSLNSDPYLLSHPSEPLELVVSGGGGSGGGGSGGGGS[human IgG4 Fc with S228P L235E Y349C T366W (EU numbers) omitted here]
chain 2: QTGTIPKPTLWAEPDSVITQGSPVTLSCQGSLEAQEYRLYREKKSASWITRIRPELVKNGQFHIPSITWEHTGRYGCQYYSRARWSELSDPLVLVMTGAYPKPTLSAQPSPVVTSGGRVTLQCESQVAFGGFILCKEGEEEHPQCLNSQPHARGSSRAIFSVGPVSPNRRWSHRCYGYDLNSPYVWSSPSDLLELLVPGVSKKPSLSVQPGPVVAPGESLTLQCVSDVGYDRFVLYKEGERDLRQLPGRQPQAGLSQANFTLGPVSRSYGGQYRCYGAHNLSSECSAPSDPLDILITGQIRGTPFISVQPGPTVASGENVTLLCQSWRQFHTFLLTKAGAADAPLRLRSIHEYPKYQAEFPMSPVTSAHAGTYRCYGSLNSDPYLLSHPSEPLELVVSGGGGSGGGGSGGGGSESKYGPPCPPCPAPEFEGGPSVFLFPPKPKDTLMISRTPEVTCVVVDVSQEDPEVQFNWYVDGVEVHNAKTKPREEQFNSTYRVVSVLTVLHQDWLNGKEYKCKVSNKGLPSSIEKTISKAKGQPREPQVYTLPPSQCEMTKNQVSLSCAVKGFYPSDIAVEWESNGQPENNYKTTPPVLDSDGSFFLVSRLTVDKSRWQEGNVFSCSVMHEALHNHYTQKSLSLSLGKGGGGSGGGGSAASPRLREGPELSPDDPAGLLDLRQGMFAQLVAQNVLLIDGPLSWYSDPGLAGVSLTGGLSYKEDTKELVVAKAGVYYVFFQLELRRVVAGEGSGSVSLALHLQPLRSAAGAAALALTVDLPPASSEARNSAFGFQGRLLHLSAGQRLGVHLHTEARARHAWQLTQGATVLGLFRVTPEIPAGLPSPRSEGGGGSGGGGSGGGGSAASPRLREGPELSPDDPAGLLDLRQGMFAQLVAQNVLLIDGPLSWYSDPGLAGVSLTGGLSYKEDTKELVVAKAGVYYVFFQLELRRVVAGEGSGSVSLALHLQPLRSAAGAAALALTVDLPPASSEARNSAFGFQGRLLHLSAGQRLGVHLHTEARARHAWQLTQGATVLGLFRVTPEIPAGLPSPRSEGGGGSGGGGSGGGGSAASPRLREGPELSPDDPAGLLDLRQGMFAQLVAQNVLLIDGPLSWYSDPGLAGVSLTGGLSYKEDTKELVVAKAGVYYVFFQLELRRVVAGEGSGSVSLALHLQPLRSAAGAAALALTVDLPPASSEARNSAFGFQGRLLHLSAGQRLGVHLHTEARARHAWQLTQGATVLGLFRVTPEIPAGLPSPRSE
notes: Made in Expi293F cells; tested as culture supernatant; also called TSP214; 2xLILRB2-3xsc4-1BBL
